According to patent US20250288553A1, “Antimicrobial Compositions and Uses for Treatment of Clostridioides difficile, Mycobacterium tuberculosis, and Enterococcus faecalis Infection” (priority 2022, published 2025):

Experiments:
[1] = test system: Mycobacterium tuberculosis H37Ra ATCC 25177; experiment: MIC against Mtb H37Ra, resazurin microtiter assay (REMA); design: key: (—) = no activity seen; conditions: determined visually by REMA assay, 14-day incubation
[2] = test system: M. smegmatis mc^2155 ATCC 700084; experiment: MIC against M. smegmatis, REMA; design: key: (—) = no activity seen; conditions: determined visually by REMA assay, 24-hour incubation

Structure (SMILES) | MIC Mtb H37Ra [1] | MIC M. smegmatis [2]
CC1(C)CCCC2(C)C1CCC(C)(O)C2Cc1ccc(O)cc1 (stereo not shown) [Compound 34] | — | —
CC1(C)CCCC2(C)C1CCC(C)(O)C2Cc1ccc(OCc2ccccc2)cc1 (stereo not shown) [Compound 33] |  | —
CO[C@@H]1c2cc(OC(=O)c3ccccc3)c(OC(=O)c3ccccc3)cc2O[C@@]2(C)CC[C@H]3C(C)(C)CCC[C@]3(C)[C@@H]12 [Compound 18] | — | —
CCC(=O)Oc1cc2c(cc1OC(=O)CC)[C@@H](OC)[C@@H]1[C@@]3(C)CCCC(C)(C)[C@@H]3CC[C@]1(C)O2 [Compound 16] |  | —
CC(C)C(=O)Oc1cc2c(cc1OC(=O)C(C)C)[C@@H](OC(=O)C(C)C)[C@@H]1[C@@]3(C)CCCC(C)(C)[C@@H]3CC[C@]1(C)O2 [Compound 22] | — | —
CC(=O)Oc1cc2c(cc1OC(C)=O)[C@@H](OC(C)=O)[C@@H]1[C@@]3(C)CCCC(C)(C)[C@@H]3CC[C@]1(C)O2 [Compound 20, 15-α-acetoxypuupehenol diacetate] |  | —
CO[C@@H]1c2cc(OC(=O)C(C)(C)C)c(O)cc2O[C@@]2(C)CC[C@H]3C(C)(C)CCC[C@]3(C)[C@@H]12 [Compound 19, 15-α-methoxypuupehenol monopivalate] |  | —
CCC(=O)Oc1cc2c(cc1OC(=O)CC)[C@@H](OC(=O)CC)[C@@H]1[C@@]3(C)CCCC(C)(C)[C@@H]3CC[C@]1(C)O2 [Compound 21] |  | —
CC1(C)CCC[C@]2(C)[C@@H]1CC[C@]1(C)Oc3ccc(O)cc3C[C@@H]21 [Compound 31, (+)-Chromazonarol] |  | —
CC1(C)CCC[C@]2(C)[C@H]3C=C4C=C(O)C(=O)C=C4O[C@@]3(C)CC[C@@H]12 [Compound 1, (+)-Puupehenone] |  | —
CO[C@@H]1c2cc(OC(=O)C(C)C)c(OC(=O)C(C)C)cc2O[C@@]2(C)CC[C@H]3C(C)(C)CCC[C@]3(C)[C@@H]12 [Compound 17] |  | —
CC1(C)CCCC2(C)C1CCC(C)(O)C2Cc1ccc(O)c(O)c1 (stereo not shown) [Compound 38] | — | —
